Tests used:
[1] = target: Mcl-1 peptide 111-130 (S121, E125); assay: ELISA; unphosphorylated
[2] = target: Mcl-1 peptide 111-130 (P-S121, E125); assay: ELISA; phosphorylated S121
[3] = target: Cyclin E peptide 372-390 (P-T380, P-S384); assay: ELISA; phosphorylated T380/S384
Chain of Cyclin E peptide 372-390 (P-T380, P-S384) (Q969H0 2-707): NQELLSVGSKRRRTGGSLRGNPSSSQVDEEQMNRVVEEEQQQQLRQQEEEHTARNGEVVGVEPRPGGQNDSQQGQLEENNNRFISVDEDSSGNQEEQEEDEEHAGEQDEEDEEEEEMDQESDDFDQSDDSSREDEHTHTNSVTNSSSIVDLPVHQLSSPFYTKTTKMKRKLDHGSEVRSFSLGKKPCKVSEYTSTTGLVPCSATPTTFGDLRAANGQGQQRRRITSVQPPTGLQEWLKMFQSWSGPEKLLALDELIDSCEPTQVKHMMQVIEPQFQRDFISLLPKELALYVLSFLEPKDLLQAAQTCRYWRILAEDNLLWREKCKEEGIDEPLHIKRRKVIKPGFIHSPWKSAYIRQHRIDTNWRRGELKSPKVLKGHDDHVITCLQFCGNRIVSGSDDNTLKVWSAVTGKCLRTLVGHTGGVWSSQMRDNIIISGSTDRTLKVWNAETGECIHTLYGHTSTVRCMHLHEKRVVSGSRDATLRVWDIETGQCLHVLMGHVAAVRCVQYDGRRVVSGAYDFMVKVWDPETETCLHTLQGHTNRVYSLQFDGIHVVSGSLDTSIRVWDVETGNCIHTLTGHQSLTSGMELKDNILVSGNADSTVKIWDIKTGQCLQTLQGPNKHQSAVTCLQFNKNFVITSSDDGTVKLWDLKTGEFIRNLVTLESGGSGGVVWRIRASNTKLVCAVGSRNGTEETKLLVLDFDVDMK

Chain of Mcl-1 peptide 111-130 (S121, E125) (Q969H0 2-707): as above
Chain of Mcl-1 peptide 111-130 (P-S121, E125) (Q969H0 2-707): as above

B1: FBW7 (other)
chain: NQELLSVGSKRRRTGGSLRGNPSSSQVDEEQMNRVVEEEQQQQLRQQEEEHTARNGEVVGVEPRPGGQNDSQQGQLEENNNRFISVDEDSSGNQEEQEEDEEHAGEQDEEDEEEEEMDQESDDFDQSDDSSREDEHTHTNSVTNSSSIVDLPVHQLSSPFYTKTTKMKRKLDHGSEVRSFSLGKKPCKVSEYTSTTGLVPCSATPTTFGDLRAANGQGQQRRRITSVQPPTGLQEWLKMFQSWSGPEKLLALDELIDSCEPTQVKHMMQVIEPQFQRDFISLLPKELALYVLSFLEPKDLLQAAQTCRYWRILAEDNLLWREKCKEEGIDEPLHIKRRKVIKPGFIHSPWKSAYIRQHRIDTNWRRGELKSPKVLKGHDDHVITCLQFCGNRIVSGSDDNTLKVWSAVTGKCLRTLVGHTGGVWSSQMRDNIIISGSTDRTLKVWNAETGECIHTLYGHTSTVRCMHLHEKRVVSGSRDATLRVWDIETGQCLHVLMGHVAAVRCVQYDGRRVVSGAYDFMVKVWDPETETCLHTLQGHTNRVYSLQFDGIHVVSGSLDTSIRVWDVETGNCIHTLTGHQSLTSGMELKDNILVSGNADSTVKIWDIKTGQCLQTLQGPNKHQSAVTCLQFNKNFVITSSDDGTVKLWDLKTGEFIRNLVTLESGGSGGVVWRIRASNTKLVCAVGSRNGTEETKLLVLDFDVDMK
For B1, the Kd [1] was over 35 µM, the Kd [2] was 6.6 µM and the Kd [3] was 0.37 µM.
